From PubChem BioAssay AID1645887 (National Center for Advancing Translational Sciences (NCATS), 2021)
Several values for one entry are separate records, joined by “and”; a condition that tells them apart may be missing. Equal values may be shown once. In all, about 16,000 compounds went through this assay and about 40 (0.2%) were called active. Not shown: some 1% with an inconclusive outcome. Calls follow the shape of the dose curve; as a rule, active = well fitted activation curve with a large enough effect; inconclusive = small, poorly fitted or top-dose-only effect, or another doubt; inactive = no such curve, though single readings can be large or run the other way. The list shows a part of the results. Residues, ends and D or L forms follow the SMILES beside them.

Target: Rap guanine nucleotide exchange factor 4 (Homo sapiens) (UniProt Q8WZA2)
UniProt Q8WZA2, sequence (Q8WZA2 whole entry, looked up): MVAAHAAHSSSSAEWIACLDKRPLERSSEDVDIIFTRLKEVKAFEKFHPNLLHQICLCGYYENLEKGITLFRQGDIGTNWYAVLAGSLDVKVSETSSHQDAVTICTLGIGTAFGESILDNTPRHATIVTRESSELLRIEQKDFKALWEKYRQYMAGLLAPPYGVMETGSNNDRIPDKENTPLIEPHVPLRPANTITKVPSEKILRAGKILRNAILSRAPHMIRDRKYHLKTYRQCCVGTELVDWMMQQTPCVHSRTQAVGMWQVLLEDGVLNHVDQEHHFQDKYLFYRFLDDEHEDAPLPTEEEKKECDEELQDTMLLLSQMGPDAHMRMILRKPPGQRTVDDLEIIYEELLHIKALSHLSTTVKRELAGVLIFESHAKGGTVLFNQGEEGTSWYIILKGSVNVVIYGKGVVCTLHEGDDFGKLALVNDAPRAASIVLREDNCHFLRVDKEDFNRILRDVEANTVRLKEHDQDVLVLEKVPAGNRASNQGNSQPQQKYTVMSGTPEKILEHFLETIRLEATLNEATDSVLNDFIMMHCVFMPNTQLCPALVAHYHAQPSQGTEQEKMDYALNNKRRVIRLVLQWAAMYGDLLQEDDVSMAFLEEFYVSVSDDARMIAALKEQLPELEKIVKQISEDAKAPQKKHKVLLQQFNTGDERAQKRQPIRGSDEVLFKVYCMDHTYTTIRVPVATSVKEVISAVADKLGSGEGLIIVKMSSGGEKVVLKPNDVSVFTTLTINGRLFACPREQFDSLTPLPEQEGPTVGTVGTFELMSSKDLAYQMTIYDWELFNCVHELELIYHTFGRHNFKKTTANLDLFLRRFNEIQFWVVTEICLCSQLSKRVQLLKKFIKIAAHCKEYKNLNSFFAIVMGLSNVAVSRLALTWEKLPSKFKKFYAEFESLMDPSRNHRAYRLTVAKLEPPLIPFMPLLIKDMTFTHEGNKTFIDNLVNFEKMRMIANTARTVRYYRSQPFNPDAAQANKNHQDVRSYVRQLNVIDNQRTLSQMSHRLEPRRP
Assay: Validation qHTS for agonist of cAMP-regulated guanine nucleotide exchange factor 4 (EPAC2);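 also: exchange makes BODIPY-GDP fluorescence drop when released from Rap1B; series mostly up to about 150 µM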
Settings: EPAC2 Rap1B BODIPY-GDP exchange, fluorescence; activation: stronger effect = higher value
In short: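 Fluorescent exchange assay: 100 nM EPAC2 with 250 nM RAP1B-BODIPY-GDP and 50 uM GDP; compound added, 5 min at room temperature, then read (ex 480/em 540 nm) every 5 min for 30 min. Normalized to 6.5 mM cAMP agonist control.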
% is scaled to controls: 0 for no effect and ±100 for the full control effect.

| SMILES | activation |
| --- | --- |
| O=C1CC[C@@]2(O)C3Cc4ccc(O)c5c4C2(CCN3CC2CC2)[C@H]1O5 (stereo partly specified) | inactive: -12.4% |
| O=C(O)CNCP(=O)(O)O | inactive: -1.55% |
| c1csc(CN2CCCC3(CCNCC3)C2)n1 | inactive: -10.1% |
| CCN1C[C@]2(COC)CC[C@H](OC)[C@@]34C5C[C@@H]6[C@@H](OC)C[C@@]7(OCO[C@@]7([C@@H](O)C23)[C@@H]14)C5[C@H]6OC (stereo partly specified) | inactive: -3.22% |
| CN(C)Cc1c[nH]c2ccccc12 | inactive: -3.14% and inactive: -13.8% |
| c1cncc(C2CCCCN2)c1 (stereo unspecified) | inactive: 7.66% and inactive: -18.9% |
| COc1cccc(C(=O)CCN[C@@H](C)[C@H](O)c2ccccc2)c1 | inactive: -4.52% |
| C#CCOC(C(=O)OCCN(C)C)(c1ccccc1)c1ccccc1 | inactive: -20% |
| CCC1(c2ccccc2)C(=O)NC(=O)N(C(=O)c2ccccc2)C1=O (stereo unspecified) | inactive: 1.65% |
| CCS(=O)(=O)Nc1cccc(C(=C2CCCCC2)c2cnc[nH]2)c1 | inactive: -23.4% |
| CCCCOC(=O)c1ccccc1C(=O)OCc1ccccc1 | inactive: -26.7% |
| NCC(O)c1cc(O)c(O)cc1F (stereo unspecified) | inactive: -25.9% |
| CC[C@@H](C(N)=O)N1CCCC1=O | inactive: -26.7% |
| O=C(O)CCCc1ccc(N(CCCl)CCCl)cc1 | inactive: -14% and inactive: -25.7% |
| O=C(Nc1cccc(F)c1)N1CCC2(CC1)CCN(C(=O)Oc1ccccc1)CC2 | inactive: -16.2% |
| O=C(c1cnccn1)N1CCC2(CC1)CN(Cc1ccncc1)C2 | inactive: -6.17% |
| c1ccc2c(c1)OC[C@@H](C1=NCCN1)O2 | inactive: -12.3% |
| OCC1OC(n2cnc3cc(Cl)c(Cl)cc32)C(O)C1O (stereo unspecified) | inactive: -4.14% |
| N#Cc1ccc(CN2CC3(CCNCC3)C2)cc1 | inactive: 2.52% |
| NCC(CS(=O)(=O)O)c1ccc(Cl)cc1 (stereo unspecified) | inactive: -16.3% |
| CN1C(=O)CCS(=O)(=O)[C@H]1c1ccc(Cl)cc1 | inactive: -29.8% |

| SMILES | activation |
| --- | --- |
| C=CCN1CCc2cccc3c2C1Cc1ccc(O)c(O)c1-3 (stereo unspecified) | inactive: -15.3% |
| CC[C@@H](CO)NC(=O)[C@H]1C=C2c3cccc4[nH]cc(c34)C[C@H]2N(C)C1 | inactive: -7.17% |
| COc1ccc(OC)c(CC(C)N)c1 (stereo unspecified) | inactive: -18.3% |
| CC(C(=O)OC1CC2CCC(C1)N2C)c1ccc(Br)cc1 (stereo unspecified) | inactive: 13.4% |
| O=C1CCCC2C3CC(CN12)C1CCCCN1C3 (stereo unspecified) | inactive: -7.65% |
| N[C@H](C(=O)O)c1cc(=O)[nH]o1 | inactive: -2.75% |
| CCCCCl | inactive: -5.57% |
| COC(=O)[C@]1(C)CC[C@@]2(C)CC[C@@]3(C)C4=CCc5c(cc(O)c(O)c5C)[C@]4(C)CC[C@@]3(C)C2C1 (stereo partly specified) | inactive: -18.2% |
| CN1C(=S)CN=C(c2ccccc2)c2cc(Cl)ccc21 | inactive: -15% |
| NC(=O)[C@@H]1CCCN1C(=O)[C@H](Cc1ccccc1)NC(=O)[C@@H]1CCCN1C(=O)[C@@H](N)Cc1ccc(O)cc1 (H-YPFP-NH2) | inactive: -4.2% |
| COc1ccc(C(=O)N2CCCC2=O)cc1 | inactive: -4.66% [middle of 4 runs] |
| CC(N)[C@H](O)c1ccccc1 (stereo partly specified) | inactive: -19.1% |
| C=CCN1CCc2cccc3c2[C@H]1Cc1ccc(O)c(O)c1-3 | inactive: -25.2% |
| Cc1[nH]c2ccc(O)cc2c1CCN | inactive: -12.9% and inactive: 8.11% and inactive: 5.84% |
| COc1nc(NC(C)C)nc(NC(C)C)n1 | inactive: 2.3% |
| O=C(c1ccncc1)N1CCC[C@@]2(CCN(Cc3nccs3)C2)C1 | inactive: -16.1% |
| CCCN(CCC)C1CCc2cccc(O)c2C1 (stereo unspecified) | inactive: 9.07% and inactive: -0.579% |
| O=C(Nc1ccccc1)N1CC2(CCN(C(=O)Oc3ccccc3)CC2)C1 | inactive: -17.2% |
| c1cc(CN2CC3(CCNCC3)C2)ccn1 | inactive: -20.8% |
| O=c1oc2ccccc2c(O)c1Cc1c(O)c2ccccc2oc1=O | inactive: -1.4% and inactive: -2.53% |
| OCCN(CCO)CCO | inactive: -9.71% |

| SMILES | activation |
| --- | --- |
| C[C@]12CC[C@H](O)CC1=CCC1C2CC[C@]2(C)C(=O)CC[C@@H]12 (stereo partly specified) | inactive: -11.3% |
| c1cncc(C2=NCCC2)c1 | inactive: -2.71% |
| Cc1ccc(C[N+](C)(C)C)o1 | inactive: -5.41% and inactive: -0.486% and inactive: 3.14% |
| CC1(C)C(O)CC(O)[C@]2(C)C1CC(O)[C@]1(C)C2CC[C@@]2(C)C(c3ccoc3)OC(=O)C3O[C@]312 (stereo partly specified) | inactive: -8.15% |
| CC(C)(Cc1c[nH]c2ccc(Cl)cc12)NCCOc1ccccc1OCC1CC1 | inactive: -23.8% and inactive: -11.4% |
| CCCCC/C=C\C=C\[C@H](CCCCCCCC(=O)O)OO | inactive: 3.34% |
| C[C@]12C=CC(=O)C=C1CC[C@@H]1[C@@H]2CC[C@]2(C)OC(=O)CC[C@@H]12 | inactive: -9.73% |
| CCCCCCCCc1ccc(O)cc1 | inactive: -63.2% |
| C[C@]12CC[C@@H]3c4ccc(OC(=O)N(CCCl)CCCl)cc4CC[C@H]3[C@@H]1CC[C@@H]2O | inactive: -23.5% |
| CCCN1CCc2cccc3c2[C@H]1Cc1ccc(O)c(O)c1-3 | inactive: -21.7% |
| NC(N)=NOCCC(N)C(=O)O (stereo unspecified) | inactive: 4.02% and inactive: -3.43% |
| CN1C2CCC1CC(C(=O)OC(CO)c1ccccc1)C2 (stereo unspecified) | inactive: -8.73% |
| CC1N=C(N)OC1c1ccccc1 (stereo unspecified) | inactive: -0.752% |
| Cc1nccc2c1[nH]c1ccccc12 | inactive: -5.94% [middle of 4 runs] |
| CCOC(=O)c1ncn2c1[C@H]1CCCN1C(=O)c1cc(OC)ccc1-2 | inactive: -17.9% |
| CN1CC[C@@]2(C)c3cc(O)ccc3N(C)C12 (stereo partly specified) | inactive: -29.8% |
| C[N+]1(C)CCCCC1COC(=O)C(O)(c1ccccc1)c1ccccc1 (stereo unspecified) | inactive: 8.98% |
| CC(=O)CC1CCCCN1 (stereo unspecified) | inactive: -7.98% |
| C=C1C2CCC3[C@@](CC[C@@H]4C(C(=O)O)CC(OC5OC(CO)C(OS(=O)(=O)O)C(OS(=O)(=O)O)C5OC(=O)CC(C)C)C[C@]34C)(C2)C1O (stereo partly specified) | inactive: -1.17% |
